{"source": "paper PMC4336329", "about": "(PLoS ONE, 2015)", "note": "The whole screen tested about 310,000 compounds, of which about 2,200 (0.71%) showed an effect of 50% or more. Effects have a minus sign here. Some of the results follow."}
{"target": "human ether-à-go-go-related gene (hERG) potassium channel (human, UniProt Q12809)", "sequence (Q12809 whole entry, looked up)": "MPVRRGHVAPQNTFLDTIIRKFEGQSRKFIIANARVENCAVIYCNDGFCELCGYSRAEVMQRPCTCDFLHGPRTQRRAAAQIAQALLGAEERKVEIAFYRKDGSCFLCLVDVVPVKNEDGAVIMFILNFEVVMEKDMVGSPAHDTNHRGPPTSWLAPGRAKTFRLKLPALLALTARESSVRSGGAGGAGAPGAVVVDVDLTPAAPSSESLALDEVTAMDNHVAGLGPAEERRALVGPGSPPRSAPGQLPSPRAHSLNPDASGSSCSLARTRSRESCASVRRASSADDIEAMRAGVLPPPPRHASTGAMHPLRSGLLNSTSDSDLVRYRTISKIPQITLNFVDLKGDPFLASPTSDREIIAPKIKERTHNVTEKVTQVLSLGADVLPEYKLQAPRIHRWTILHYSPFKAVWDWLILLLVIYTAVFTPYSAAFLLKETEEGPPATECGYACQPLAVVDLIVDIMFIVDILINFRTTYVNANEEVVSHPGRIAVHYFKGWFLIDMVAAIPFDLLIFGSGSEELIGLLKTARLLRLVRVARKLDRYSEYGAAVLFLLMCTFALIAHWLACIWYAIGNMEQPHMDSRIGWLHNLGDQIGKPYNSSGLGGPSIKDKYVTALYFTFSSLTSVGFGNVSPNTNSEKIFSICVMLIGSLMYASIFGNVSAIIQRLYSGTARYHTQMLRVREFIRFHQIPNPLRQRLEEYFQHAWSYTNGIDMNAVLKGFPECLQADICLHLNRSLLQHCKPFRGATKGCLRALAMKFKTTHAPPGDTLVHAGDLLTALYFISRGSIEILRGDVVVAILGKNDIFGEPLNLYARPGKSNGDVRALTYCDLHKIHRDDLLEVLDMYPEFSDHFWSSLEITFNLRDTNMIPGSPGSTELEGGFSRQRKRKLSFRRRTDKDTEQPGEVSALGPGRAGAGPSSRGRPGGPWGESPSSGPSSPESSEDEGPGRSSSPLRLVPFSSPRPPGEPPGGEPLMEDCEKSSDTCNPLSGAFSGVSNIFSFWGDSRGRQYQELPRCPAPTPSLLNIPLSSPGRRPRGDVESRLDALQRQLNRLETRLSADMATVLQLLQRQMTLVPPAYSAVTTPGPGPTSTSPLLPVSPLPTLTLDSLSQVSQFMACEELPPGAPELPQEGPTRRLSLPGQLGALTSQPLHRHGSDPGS", "assay": "primary screen, population patch clamp on CHO cells stably expressing hERG", "units": {"hERG current change (%, negative = inhibition) at 1uM": "%"}}
{"smiles": "COc1ccc(Br)cc1/C=N/NC(=O)c1cc(Br)ccc1O", "hERG current change (%, negative = inhibition) at 1uM": 16}
{"smiles": "O=C(O)Cc1ccc2oc(-c3ccccn3)nc2c1", "hERG current change (%, negative = inhibition) at 1uM": 13.5}
{"smiles": "C=CCn1c(C(C)NC(=O)C(C)(C)C)nc2ccccc21", "note": "(stereo not drawn)", "hERG current change (%, negative = inhibition) at 1uM": 8.93}
{"smiles": "CCOC(=O)c1oc2ccc(S(=O)(=O)n3nc(-c4ccccc4)cc3N)cc2c1C", "hERG current change (%, negative = inhibition) at 1uM": 15.2}
{"smiles": "Cc1cccc(-c2nc(-c3ccncc3)no2)c1", "hERG current change (%, negative = inhibition) at 1uM": 11.9}
{"smiles": "Cc1cnc(C(=O)Nc2cccc(-c3nnc4n3CCCCC4)c2)cn1", "hERG current change (%, negative = inhibition) at 1uM": 11.7}
{"smiles": "O=C(NN=C1C2CC3CC(C2)CC1C3)c1cccs1", "hERG current change (%, negative = inhibition) at 1uM": 13.5}
{"smiles": "COc1ccc(C2CC(=O)C(C=NCCO)=C(O)C2)cc1OC", "note": "(stereo not drawn)", "hERG current change (%, negative = inhibition) at 1uM": 13.4}
{"smiles": "C=CCn1c(Cc2cccs2)nnc1SCC(=O)NCc1ccco1", "hERG current change (%, negative = inhibition) at 1uM": 3.17}
{"smiles": "COc1ccc(Nc2nc(N)nc(CN3CCC(C)CC3)n2)cc1", "hERG current change (%, negative = inhibition) at 1uM": -50.7}
{"smiles": "CCOc1ccc(Nc2nc(Cc3nnc(SCC(=O)NCc4ccco4)n3CC)cs2)cc1", "hERG current change (%, negative = inhibition) at 1uM": 5.18}
{"smiles": "CCCN(C(=O)COc1ccc(C(C)=O)cc1OC)C1CCS(=O)(=O)C1", "note": "(stereo not drawn)", "hERG current change (%, negative = inhibition) at 1uM": 8.73}
{"smiles": "O=C(Cn1ccc(NC(=O)OCc2ccccc2)nc1=O)NCCCn1ccnc1", "hERG current change (%, negative = inhibition) at 1uM": 16.6}
{"smiles": "O=C(Cc1cccs1)N(c1ccc(Cl)cc1)C1C=CS(=O)(=O)C1", "note": "(stereo not drawn)", "hERG current change (%, negative = inhibition) at 1uM": 8.53}
{"smiles": "Cc1ccnc(NC(=O)C2CCN(S(=O)(=O)c3c(C)c(C)cc(C)c3C)CC2)c1", "hERG current change (%, negative = inhibition) at 1uM": 1.82}
{"smiles": "Cc1ccc(C)c(S(=O)(=O)Nc2ccc3sc(C)nc3c2)c1", "hERG current change (%, negative = inhibition) at 1uM": 8.02}
{"smiles": "COC(=O)C1C(c2ccc(Cl)cc2)NC(c2ccc(Cl)cc2)C(C(=O)OC)S1(=O)=O", "note": "(stereo not drawn)", "hERG current change (%, negative = inhibition) at 1uM": 11.2}
{"smiles": "COC(=O)CN1C(=O)C(C)(C)Oc2ccc(C(=O)NC3CCCC3)cc21", "hERG current change (%, negative = inhibition) at 1uM": 14.8}
{"smiles": "COC(=O)c1cnn(-c2ccc(F)cc2F)c1/C=N/NC(N)=S", "hERG current change (%, negative = inhibition) at 1uM": 5.86}
{"smiles": "CC(C)NC(=O)Cn1cc(C(=O)c2ccccc2F)c2ccccc21", "hERG current change (%, negative = inhibition) at 1uM": 14}
{"smiles": "Cc1c(Cl)cccc1NC(=O)CC(NCCN1CCOCC1)C(=O)O", "note": "(stereo not drawn)", "hERG current change (%, negative = inhibition) at 1uM": 14.4}
{"smiles": "CC1CN(C(=O)CCNS(=O)(=O)c2ccc(Br)cc2)CC(C)O1", "note": "(stereo not drawn)", "hERG current change (%, negative = inhibition) at 1uM": 7.14}
{"smiles": "Cc1ccc(S(=O)(=O)N2[C@@H](c3ccccc3)C(C(=O)O)=CC[C@H]2c2ccc(C(C)C)cc2)cc1", "hERG current change (%, negative = inhibition) at 1uM": 19.7}
{"smiles": "Cc1ccc(-c2nc(NC(=O)c3cc(C(C)(C)C)nn3C)sc2C)cc1Cl", "hERG current change (%, negative = inhibition) at 1uM": 11.1}
{"smiles": "CC1(C)C[C@H]2C3=CCC4[C@@]5(C)CC[C@H](O)[C@](C)(CO)C5CC[C@@]4(C)[C@]3(C)C[C@H]3O[C@@H]1[C@H](O)[C@]32CO", "note": "(stereo partly drawn)", "hERG current change (%, negative = inhibition) at 1uM": 15.3}
{"smiles": "CCOC(=O)C1C(=O)Nc2nc(C)nn2C1c1ccccc1", "note": "(stereo not drawn)", "hERG current change (%, negative = inhibition) at 1uM": 16.2}
{"smiles": "O=C(CCNC(=O)c1ccccc1Cl)NN1C(=O)NC2(CCCCC2)C1=O", "hERG current change (%, negative = inhibition) at 1uM": -4.68}
{"smiles": "CCCCC1=CC2=C(c3ccco3)C(=O)C(C)(OC(=O)c3ccc(OC)cc3)C(=O)C2=CN1Cc1ccccc1", "note": "(stereo not drawn)", "hERG current change (%, negative = inhibition) at 1uM": 4.37}
{"smiles": "Cc1cc(Cl)c(S(=O)(=O)N2CCN(c3ccc(F)cc3)CC2)cc1OCC(=O)NC1CCCCC1", "hERG current change (%, negative = inhibition) at 1uM": 7.64}
{"smiles": "CCn1c(SCC(=O)N(C)C2CCS(=O)(=O)C2)nnc1-c1ccccc1", "note": "(stereo not drawn)", "hERG current change (%, negative = inhibition) at 1uM": 13}
{"smiles": "Nc1c(C(=O)NCc2ccccc2)sc2nc(N3CCOCC3)c3c(c12)CCCC3", "hERG current change (%, negative = inhibition) at 1uM": 13.3}
{"smiles": "CCOc1ccccc1C(=O)NCC(=O)Nc1ccc(-c2ccccc2)cc1", "hERG current change (%, negative = inhibition) at 1uM": 6.95}
{"smiles": "O=C(NC1CCCCC1)C(c1ccc2ncccc2c1)N(Cc1cccs1)C(=O)c1cccs1", "note": "(stereo not drawn)", "hERG current change (%, negative = inhibition) at 1uM": -11.8}
{"smiles": "Cc1ccccc1Nc1nc(N)nc(CSc2nncn2C)n1", "hERG current change (%, negative = inhibition) at 1uM": 7.74}
{"smiles": "COC(=O)c1cc(C(=O)NCCC(C)C)cc([N+](=O)[O-])c1", "hERG current change (%, negative = inhibition) at 1uM": 15.2}
{"smiles": "CCc1cc2cc(C)cc(C)c2nc1SCC(=O)N1CCN(C(=O)c2ccco2)CC1", "hERG current change (%, negative = inhibition) at 1uM": 1.54}
{"smiles": "O=[N+]([O-])c1cccnc1N/N=C/c1ccccc1O", "hERG current change (%, negative = inhibition) at 1uM": 8.83}
{"smiles": "CCOc1ccc(C(=O)N2CCN(c3cccc(C)c3C)CC2)cc1", "hERG current change (%, negative = inhibition) at 1uM": -30.2}
{"smiles": "COc1ccccc1CC(=O)OC(C)C(=O)Nc1ccc(S(=O)(=O)N2CCCCC2)cc1", "note": "(stereo not drawn)", "hERG current change (%, negative = inhibition) at 1uM": 3.48}
{"smiles": "COc1ccc(C)cc1NC(=O)CN(c1ccccc1)S(C)(=O)=O", "hERG current change (%, negative = inhibition) at 1uM": 8.12}
{"smiles": "Cc1cccc(N2CCN(C(=O)c3cc(S(=O)(=O)N4CCCC4)cn3C)CC2)c1C", "hERG current change (%, negative = inhibition) at 1uM": 0.183}
{"smiles": "O=S(=O)(/N=C(\\c1ccc(Cl)cc1)N1CCOCC1)c1ccccc1", "hERG current change (%, negative = inhibition) at 1uM": 3.97}
